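Five compound concentrations were applied to cells in 96-well plates for 48 hours; endpoints were derived by simple linear interpolation of the resulting dose-response curve. GI50 is the concentration that inhibits growth by half. TGI marks complete inhibition of growth.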
tested on: NCI-H322M lung; experiment: DTP human tumour cell line panel, 48 h

SMILES | TGI | GI50
O=C(NCCC1([N+](=O)[O-])CCN(C(=O)c2ccccc2)CC1)c1ccccc1 | > 100 µM | 
CCOC(=O)C1N(S(=O)(=O)c2ccc(C)cc2)CCC12c1ccccc1N(C(C)=O)C2c1ccc(OC)c(OC)c1 (configuration not stated) | > 100 µM | 
CCC(CON(C)c1ccccc1)(SC)SC | > 100 µM | 
CN(C)CC(C)(C)C(=O)/C=C/c1ccc(/C=C/C(=O)C(C)(C)CN(C)C)cc1 | 2.79 µM | 
Cc1cc2c(ccc3c(C)cc(=O)oc32)o1 | > 100 µM | 
CC1CCC2(CC1)NN=c1s/c(=C\c3ccc(O)cc3)c(=O)n1N2 (configuration not stated) | > 100 µM | 
Cc1ccc(SC(CCC(Sc2ccc(C)cc2)Sc2ccc(C)cc2)Sc2ccc(C)cc2)cc1 | > 100 µM | 
Cc1cc(S(=O)(=O)Nc2nc3cscc3c(=O)n2Cc2ccccc2)c(S)cc1Cl | 75.9 µM | 18.2 µM
CC(=O)OCCCOCn1c(Cc2ccccc2)c(C)c(=O)[nH]c1=O | > 100 µM | 
COC(=O)C1C/C(=C/N(C)C)C(=S)N1 (configuration not stated) | > 100 µM | 
CC(C)CC(NC(=O)c1cccc(O)c1O)C(=O)NCc1cc(CNC(=O)C(CC(C)C)NC(=O)c2cccc(O)c2O)cc(CNC(=O)C(CC(C)C)NC(=O)c2cccc(O)c2O)c1 (configuration not stated) | 50.9 µM | 
CN(C)CC(C)(C)/C(=N\Nc1ccccc1)c1ccccc1 | > 100 µM | 
Clc1ccc(SC(/C=C/NNC2=NC(c3ccccc3)C(c3ccccc3)=NN2)c2ccccc2)cc1 (configuration not stated) | > 100 µM | 
CN[C@H]1C=C[C@@H]2/C=C(C)/C=C/[C@@H](C)[C@H]([C@H](C)[C@H](O)[C@@H](C)NC(C)=O)OC(=O)/C=C/C=C(C)\C=C\[C@]2(C)C1 | > 49 µM | 0.196 µM
O=C(O)CCCCCCC[C@H]1S[C@H]1CCCCCCO | > 100 µM | 
Cc1cccc2c(=O)c([Se]c3coc4c(C)cccc4c3=O)coc12 | 18.4 µM | 
Cc1cc(=O)oc2cc(OC(=O)N(C)C)c(Cl)cc12 | > 100 µM | 
COC(=O)C1=C(C(=O)OC)C(C(=O)c2ccc(Br)cc2)N2N=C(c3ccc(Cl)cc3)C=CC12 (configuration not stated) | > 100 µM | 
C=C1C(=O)O[C@H]2[C@H]1CC/C(COC(=O)CSCCSCC(=O)OC/C1=C/CC[C@@]3(C)O[C@H]3[C@H]3OC(=O)C(=C)[C@@H]3CC1)=C\CC[C@@]1(C)O[C@@H]21 | 13.4 µM | 3.71 µM
O=c1nc(/C=C/c2ccccc2Cl)cc2n1CCN2CCO | > 100 µM | 
CCCCCC(=O)C(C)C1=Nc2nnc(CCCCCCCc3nnc4n3C(=O)C(C(C)C(=O)CCCCC)=N4)n2C1=O (configuration not stated) | > 100 µM | 
CCC[CH2][Sn]1([CH2]CCC)[O]CC(Cc2ccccc2)[O]1 (configuration not stated) | 26 µM | 13.3 µM
O=C(c1ccc(Cl)cc1)c1ccc(OCCCOc2ccc(C(=O)c3ccc(Cl)cc3)cc2)cc1 | > 100 µM | 

SMILES | TGI | GI50
O=C1CC2(c3ccccc3)ON=C(c3ccccc3)N2c2ccccc2N1 (configuration not stated) | > 100 µM | 
COC(=O)/C=C1/CCC(C(=O)OC)N1 (configuration not stated) | > 100 µM | 
C=C1C(=O)O[C@H]2C[C@@H]1CC/C(C)=C/CC/C(C)=C/CC[C@H]2C | 36.2 µM | 16.7 µM
CN(C)CCCNC(=O)c1cc(NC(=O)c2cc(NC(=O)CCc3c[nH]c4ccccc34)cn2C)cn1C | > 100 µM | > 100 µM
CCN(Cc1cccc(F)c1)c1ccc(CO)c(Cl)c1 | 78.4 µM | 15.8 µM
CC(C)/C(Cl)=N\OC(=O)Nc1ccccc1F | 35.4 µM | 
CC(=O)OCC1OC(n2c(-c3ccc(Cl)cc3)ccc(C#N)c2=S)C(OC(C)=O)C(OC(C)=O)C1OC(C)=O (configuration not stated) | > 100 µM | 
O=c1[nH]c(=O)n(C2OC(COP(=O)(O)OP(=O)(O)OC3OC(CO)C(O)C(O)C3O)C(O)C2O)cc1F (configuration not stated) | > 100 µM | 
CC(C)=CC(=O)C/C(=N\NC(N)=S)C(=O)Nc1ccc(Cl)cc1 | > 100 µM | 
O=C(O)c1cc2ccccc2c(N=Nc2ccc(S(=O)(=O)Nc3nccs3)cc2)c1O | > 100 µM | 
CC(=O)N=C1N(/C=C2\C(=O)Oc3ccccc3C2=O)C(=O)/C(=C/c2ccc(OC(C)=O)cc2)N1C | > 100 µM | 
Nc1ncnc2c1nnn2C1C=CC(COS(N)(=O)=O)C1 (configuration not stated) | 85.5 µM | 
CC(=O)O[C@H]1CC[C@@]2(C)C(=CC[C@H]3[C@@H]4CC[C@H](c5cc(C(F)(F)F)n(C(C)=O)n5)[C@@]4(C)CC[C@@H]32)C1 | 23.8 µM | 
O=S(=O)(Nc1ccccc1Cl)c1ccc(-c2cnc(C3CC3)o2)cc1 | > 100 µM | 2.78 µM
[Cl-].[O-]/N=C(\c1ccccc1)c1ccccn1.[O-]/N=C(\c1ccccc1)c1ccccn1.[O-]/N=C(\c1ccccc1)c1ccccn1.[Sm+3] | > 100 µM | 31.6 µM
CN(C)c1ccc(C(=C(c2ccc(N(C)C)cc2)c2ccc(N(C)C)cc2)c2ccc(N(C)C)cc2)cc1 | > 100 µM | 
CCOC(=O)c1sc(-c2ccc(OS(=O)(=O)c3ccc(Br)s3)c(C=O)c2)nc1C | > 100 µM | 27.3 µM
CCCCc1ccc(Nc2nc3c(ncn3C3CC(O)C(CN=[N+]=[N-])O3)c(=O)[nH]2)cc1 (configuration not stated) | > 100 µM | 
COc1ccc(S(=O)(=O)N2CC(C)(C)CN(S(=O)(=O)c3ccc(OC)cc3)C2C(=O)NO)cc1 | > 20 µM | > 6.4 µM
CCCNNC(=O)/C=C/c1ccc(CNCCc2c(C)[nH]c3ccccc23)cc1 | 0.329 µM | 0.0508 µM
COC(=O)CCC(=O)NC1=C(Nc2ccc(OC)cc2)C(=O)c2ccccc2C1=O | 30.3 µM | 
COc1ccc(S(=O)(=O)Nc2ccccc2C(=O)O)cc1 | > 100 µM | 
